Source: the supplement of paper PMC9446081
The whole screen tested about 39,000 compounds, of which about 220 (0.56%) showed activity. The list shows a part of the results.

Test system: Escherichia coli K-12 BW25113
Assay: relative growth (OD600 normalised to plate interquartile mean) (fraction); higher = less growth inhibition, active = 0.2 or less
Conditions: 50 µM; LB; incubation time: overnight (16-24 h)
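Note: static incubation at 37 °C against the wild-type strain, values averaged over two biological replicates.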

SMILES	relative growth
C[C@H]1CN([C@@H](C)CO)C(=O)c2cccc(NC(=O)c3ccc(-c4nccs4)cc3)c2O[C@@H]1CN(C)C(=O)Nc1ccc(C(F)(F)F)cc1	inactive: 0.967
C[C@@H]1CCCCO[C@@H](CN(C)Cc2ccc(C(=O)Nc3ccccc3N)cc2)[C@@H](C)CN([C@H](C)CO)C(=O)c2cc(NC(=O)c3ccncc3)ccc2O1	inactive: 0.977
CO[C@H]1C[C@@H](C[C@@H](C)[C@H]2CC(=O)[C@@H](C)/C=C(\C)[C@@H](O)[C@@H](OC)C(=O)[C@@H](C)C[C@@H](C)/C=C/C=C/C=C(\C)[C@H](OC)C[C@H]3CC[C@@H](C)[C@@](O)(O3)C(=O)C(=O)N3CCCC[C@@H]3C(=O)O2)CC[C@@H]1OC(=O)C(C)(CO)CO	inactive: 0.982
C[C@H]1CCCCO[C@H](CN(C)Cc2ccccc2)[C@@H](C)CN([C@@H](C)CO)C(=O)c2cc(NC(=O)Nc3ccccc3)ccc2O1	inactive: 1.01
C[C@@H]1CN([C@H](C)CO)C(=O)c2cc(/C=C/c3ccccc3)cnc2O[C@@H]1CN(C)C(=O)c1cnccn1	inactive: 1.01
O=C(CN1CCOCC1)NCC[C@H]1CC[C@H](NC(=O)Cc2ccccn2)[C@H](CO)O1	inactive: 1
C[C@@H]1CCCCO[C@H](CN(C)Cc2ccc(C(=O)O)cc2)[C@H](C)CN([C@H](C)CO)C(=O)c2cc(NC(=O)Nc3ccc(F)cc3)ccc2O1	inactive: 0.995
CO[C@@H]1CN(C)C(=O)c2cc(NC(=O)NC(C)C)ccc2OC[C@H](C)N(Cc2ccc(-c3ccccn3)cc2)C[C@H]1C	inactive: 1.04
CC(=O)n1cc([C@@H]2C=C(C(=O)N3CCN(C)CC3)O[C@H](OCc3ccc(CO)cc3)C2)c2ccccc21	inactive: 0.987
CCn1nnc2c(SCC(N)=O)ncnc21	inactive: 0.969
C[C@H]1CCCCO[C@@H](CN(C)Cc2ccncc2)[C@@H](C)CN([C@@H](C)CO)C(=O)c2cc(NS(C)(=O)=O)ccc2O1	inactive: 0.98
NS(=O)(=O)c1ccc(NC(=S)NCCN2CCOCC2)cc1	inactive: 0.99
CC(C)NC(=O)Nc1ccc2c(c1)C(=O)N([C@H](C)CO)C[C@H](C)[C@@H](CN(C)Cc1ccc(C(=O)O)cc1)O2	inactive: 0.998
C[C@@H]1CN([C@@H](C)CO)C(=O)c2cc(NS(=O)(=O)c3ccccc3)ccc2O[C@@H]1CN(C)S(=O)(=O)c1ccccc1	inactive: 0.985
CCOC(=O)[N-]c1c[n+](N2CCOCC2)no1	inactive: 0.938
C[C@@H]1CN([C@H](C)CO)C(=O)c2cc(NC(=O)c3ccccc3)ccc2O[C@@H](C)CCCCO[C@@H]1CN(C)C(=O)Cc1ccccc1	inactive: 1.03
CO[C@H]1[C@H](O)[C@@H](O)[C@@H](O)[C@H](O)[C@@H]1O	inactive: 1
C[C@H](CO)N1C[C@H](C)[C@@H](CN(C)S(=O)(=O)c2ccc(F)cc2)Oc2ccc(NC(=O)CCN3CCOCC3)cc2CC1=O	inactive: 1.02
C=CCOC(=O)[C@H]1[C@@H]2C(=O)O[C@@H](c3ccccc3)[C@@H](c3ccccc3)N2[C@@H](c2ccc(OCCOC(=O)[C@H]3C[C@H]4C(=O)N[C@@H](CC(C)C)C(=O)N4[C@H]3c3ccc(O)cc3)cc2)[C@]12C(=O)Nc1ccccc12	inactive: 1.03
C[C@H]1CN([C@@H](C)CO)C(=O)c2cccc(NS(C)(=O)=O)c2O[C@@H]1CN(C)C(=O)Nc1ccc(C(F)(F)F)cc1	inactive: 0.884

SMILES	relative growth
C/C(=N\N)c1nnn(-c2nonc2N)c1C	inactive: 0.991
O=C(C[C@H]1C=C[C@@H](NC(=O)Cc2ccccn2)[C@H](CO)O1)NCCCN1CCOCC1	inactive: 0.99
CCN1[C@@H]2Cn3c(ccc(-c4ccncc4)c3=O)[C@H]1[C@@H](C(=O)NCCc1cn(C)cn1)[C@@H]2CO	inactive: 0.976
Cc1noc(C)c1NC(=O)N(C)C[C@H]1Oc2ccc(NC(=O)CCN3CCOCC3)cc2C(=O)N([C@@H](C)CO)C[C@@H]1C	inactive: 1.02
CCCn1c(=O)c(C)cn2nc(N)nc12	inactive: 1.01
Cc1noc(C)c1NC(=O)N(C)C[C@H]1OCCCC[C@H](C)Oc2ccc(NS(=O)(=O)c3ccccc3)cc2C(=O)N([C@@H](C)CO)C[C@H]1C	inactive: 1.01
CCS(=O)(=O)N1C[C@]2(CCN(CC2)C(=O)NC2CCCC2)c2c(n(c3cc(ccc23)OC)C)[C@@H]1CO	inactive: 0.998
CN1C(=O)C[C@@H](C(=O)N[C@@H](Cc2cnc[nH]2)C(=O)N2CCC[C@H]2C(N)=O)NC1=O	inactive: 0.998
COc1ccc(NC(=O)Nc2ccc3c(c2)C(=O)N([C@H](C)CO)C[C@@H](C)[C@H](CN(C)S(=O)(=O)c2ccc(Cl)cc2)OCCCC[C@H](C)O3)cc1	inactive: 1.01
COC1=C(CC=C(C)C)C(=O)c2ccccc2C1=O	inactive: 0.908
Cc1ccc(S(=O)(=O)Nc2ccc3c(c2)CC(=O)N([C@H](C)CO)C[C@@H](C)[C@H](CN(C)Cc2ccc(Oc4ccccc4)cc2)O3)cc1	inactive: 0.994
C[C@H](CO)N1C[C@H](C)[C@@H](CN(C)C(=O)Nc2ccccc2)Oc2c(NC(=O)c3cnccn3)cccc2C1=O	inactive: 1.03
Cc1ccc(S(=O)(=O)Nc2ccc3c(c2)CC(=O)N([C@H](C)CO)C[C@@H](C)[C@H](CN(C)C(=O)Nc2cccc4ccccc24)O3)cc1	inactive: 1.01
CC(C)CC#Cc1ccc2c(c1)O[C@H](CN(C)C(=O)C1CCOCC1)[C@H](C)CN([C@@H](C)CO)S2(=O)=O	inactive: 0.998
C[C@H]1CN([C@@H](C)CO)S(=O)(=O)c2ccc(C#CC3CC3)cc2O[C@H]1CN(C)Cc1cccc(F)c1	inactive: 1.01
CCCCOCCOc1ccc(-c2ccc3c(c2)/C=C(/C(=O)Nc2ccc([S@@](=O)Cc4cncn4CCC)cc2)CCCN3CC(C)C)cc1	inactive: 0.989
CCc1nc2ccc(C(=O)Nc3ccc4c(c3)OCC(=O)N4)cn2c1N(CC)Cc1cccc(Br)c1	inactive: 1.01
CC(C)NC(=O)N(C)C[C@H]1Oc2c(NC(=O)NC3CCCCC3)cccc2C(=O)N([C@@H](C)CO)C[C@@H]1C	inactive: 1
C[C@H](CO)N1C[C@H](C)[C@H](CN(C)Cc2ccc(C(=O)O)cc2)Oc2ccc(NC(=O)Nc3ccc(C(F)(F)F)cc3)cc2CC1=O	inactive: 0.977
C[C@@H]1CN([C@@H](C)CO)C(=O)c2cccc(NC(=O)C3CC3)c2O[C@@H]1CN(C)S(=O)(=O)c1ccc(Cl)cc1	inactive: 1.01

SMILES	relative growth
CC(C)NC(=O)N(C)C[C@@H]1Oc2ncc(-c3ccc(C(=O)N(C)C)cc3)cc2C(=O)N([C@@H](C)CO)C[C@H]1C	inactive: 1.01
C[C@@H]1CCCCO[C@@H](CN(C)S(=O)(=O)c2ccc(F)cc2)[C@H](C)CN([C@@H](C)CO)C(=O)c2cc(NC(=O)Nc3ccc4c(c3)OCO4)ccc2O1	inactive: 1.04
CN1CCN(C(=O)[C@@H]2[C@@H](C(=O)O)[C@H]3CC[C@H]2O3)CC1	inactive: 0.99
C[C@@H]1CN([C@H](C)CO)S(=O)(=O)c2ccc(-c3ccncc3)cc2O[C@@H]1CN(C)S(=O)(=O)c1ccccc1F	inactive: 1.02
C[C@H]1CN([C@@H](C)CO)C(=O)Cc2cc(NC(=O)C3CC3)ccc2O[C@H]1CN(C)S(=O)(=O)c1cccs1	inactive: 1.01
COCC#Cc1cnc2c(c1)C(=O)N([C@H](C)CO)C[C@@H](C)[C@H](CN(C)C(=O)Nc1cc(F)ccc1F)O2	inactive: 1.02
C#CCN1C(=O)C[C@H](O)C1=O	inactive: 1
C[C@H](CO)N1C[C@H](C)[C@@H](CN(C)S(C)(=O)=O)Oc2ccc(NC(=O)NC3CCCCC3)cc2CC1=O	inactive: 0.975
C[C@@H]1CCCCO[C@@H](CN(C)S(=O)(=O)c2ccc(F)cc2)[C@H](C)CN([C@H](C)CO)C(=O)c2cc(NC(=O)C3CCCCC3)ccc2O1	inactive: 1.02
C[C@@H]1CN([C@H](C)CO)C(=O)c2cccc(NC(=O)C3CCCCC3)c2O[C@H]1CN(C)S(=O)(=O)c1cn(C)cn1	inactive: 1.02
COc1cc2c(=O)c(-c3ccc4c(c3)OCO4)coc2c2c1OC(C)(C)C=C2	inactive: 0.849
CC(=N)NCCC[C@H](N)C(=O)O	inactive: 0.983
C[C@@H]1CN([C@H](C)CO)C(=O)c2cccc(NS(=O)(=O)c3cn(C)cn3)c2O[C@@H]1CN(C)CC1CCCCC1	inactive: 0.98
CCCNC(=O)N(C)C[C@H]1Oc2cc(-c3ccccc3F)ccc2S(=O)(=O)N([C@@H](C)CO)C[C@@H]1C	inactive: 1.03
Cc1noc(C)c1S(=O)(=O)N(C)C[C@@H]1Oc2ccc(NC(=O)CCCN(C)C)cc2C(=O)N([C@@H](C)CO)C[C@@H]1C	inactive: 0.886
CCCN1C(C)=C(C(=O)OC)[C@@H](c2cccc([N+](=O)[O-])c2)C(C(=O)ON2CCC(c3ccccc3)(c3ccccc3)CC2)=C1C	inactive: 0.982
Cn1cnc(S(=O)(=O)N2C[C@H](O)COC[C@@H]3O[C@@H](CC(=O)NCc4cc(F)cc(F)c4)CC[C@H]32)c1	inactive: 1.01
C[C@H](CO)N1C[C@H](C)[C@H](CN(C)C(=O)Nc2cccc3ccccc23)Oc2c(NS(=O)(=O)c3ccc(F)cc3)cccc2C1=O	inactive: 0.979
CCCCC(=O)N1c2ccccc2[C@H](Nc2ccccc2)C[C@@H]1C	inactive: 0.911
C[C@H]1CN([C@@H](C)CO)C(=O)CCCn2nncc2CO[C@@H]1CN(C)C(=O)C1CC1	inactive: 0.968
